Measured values as given in the supplement of paper PMC11417369.
± gives the standard deviation of the averaged measurements. The list shows a part of the results.

system: PfAP2-LT AP2 domain (GST-tagged); test: gcPBM binding intensity (ln(normalized median fluorescence intensity)); higher = stronger DNA binding
Summary of the method: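 Probes on an Agilent 4 × 180k array were primer-extended, double-stranded and 36 bp long, taken from intergenic genomic regions, with negative controls added. GST-tagged P. falciparum DNA-binding domains from E. coli, about 25 μg on average, were applied to the array for 1 h in 1× PBS containing 1% milk, 0.2 mg/ml BSA, 0.5% salmon testes DNA and 0.03% Triton X-100. Binding intensity, obtained after Alexa488 anti-GST antibody detection and a 488 nm scan, is the highest Masliner-normalised natural-log median intensity across replicate spots of either probe orientation.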

| Sequence | gcPBM binding intensity (ln) |
| --- | --- |
| AACTGTAATTTTATACGTACATAAATAATATTATAT [XGTACX_site4277] | 8.7 ± 0.4 |
| AGCAGTTTTTTTTTTTTTTTTTTTTTTATTAAAAGC [XGTACX_negctrl_site392] | 8.51 ± 0.35 |
| TACATATATAAAAAAACACACACATATATATATATA [CACACA_site8315] | 9.665 ± 0.021 |
| TGTATAATAAGGAAGAGTACAAGTAAATACACACAT [XGTACX_site2084] | 9.37 ± 0.4 |
| TGTATTTATAGACACACACACTTTCTTTTTTTAAGA [CACACA_site7010] | 9.1 ± 0.25 |
| AACAATTAGAACTTTGCACACTTCTATATATTTTGT [CACACA_site674] | 9.36 ± 0.44 |
| AAGTGAAATAAAATATGTACATATATGTATATATAA [XGTACX_site4473] | 9.01 ± 0.4 |
| TATATATAAAATGTATGTACATATTTATTTATATAG [XGTACX_site657] | 8.53 ± 0.38 |
| AAAAAAAAAGAATGTGAACACACACCGTGAATATAA [CACACA_site8342] | 9.28 ± 0.4 |
| TTTTTTCTTCGTGTATTAAGTCACAATAGGAAAAAA [GTGCAC_negctrl_site644] | 8.18 ± 0.31 |
| TATATATATAACATTGTACACACAAAGAAATAATAT [CACACA_site8998] | 9.16 ± 0.43 |
| ATCGGTATATTATTACATGAATAAACTTACACACAC [TGCATGCA_negctrl_site21] | 9.53 ± 0.28 |
| TTGTATTAATAATTTTTTATATTATAGTTTATAATA [GTGCAC_negctrl_site130] | 8.37 ± 0.49 |
| TTACAAAACACTTATACACACATATATATATATATA [CACACA_site2716] | 9.785 ± 0.078 |
| TAATATATTAAAAATAGTACATAAGAAAAATAAGTA [XGTACX_site7957] | 8.79 ± 0.49 |
| CAAAATTATCAGAATCGTACATTTTTAACATATAAT [XGTACX_site7909] | 8.57 ± 0.41 |
| AAAACTATATTAATGTGTACACATCAAAATATTAAT [XGTACX_site6767] | 8.88 ± 0.49 |
| ATTATAAATATCAGTGCACACATTTCTACGCAAAGT [CACACA_site4420] | 9.18 ± 0.38 |
| TATGTAAAATGTGTTTGTACTTATTTATTATATAAA [XGTACX_site2816] | 8.59 ± 0.38 |
| AAGGAGCCTATGAACACACACATGTACAGATATTAA [CACACA_site6107] | 9.32 ± 0.52 |
| AGGAAGGAAATAAATCAACACACATATATTATATAT [CACACA_site8678] | 9.1 ± 0.58 |
| ATATTTATTTTAATTTTTCTATATAAACTATTATGA [CACACA_negctrl_site739] | 8.35 ± 0.55 |
| TTTCTAAGAAAAAAAAAAAAAAAAAAAAAGATACAA [GTGCAC_negctrl_site525] | 8.31 ± 0.49 |

| Sequence | gcPBM binding intensity (ln) |
| --- | --- |
| TATATATATTATATATGTACATATTGTATATTTTTG [XGTACX_site4564] | 8.85 ± 0.42 |
| TATTTTTATAATATATGTACATATATATATATATTA [XGTACX_site5343] | 8.64 ± 0.36 |
| ACATATTATATGAATACACACAAAAACTTATCGGTA [CACACA_site3439] | 9.12 ± 0.39 |
| TTGTTATATTACAGTAGTACATTTAAAATCTACTAC [XGTACX_site2620] | 8.72 ± 0.38 |
| TTTTTTTTTTTTTTTTGTACGTAAAAAAATATATAC [XGTACX_site1290] | 8.33 ± 0.41 |
| TTACATTATATACATACACACCCACCCACAAAAAAA [CACACA_site8187] | 9.77 ± 0.085 |
| AATATTTATACTATAACACACATACAGACAAAAAAA [CACACA_site6396] | 8.97 ± 0.37 |
| ATTTTTATTTACAACCCCAAAAAGGAAAAACATAAA [CACACA_negctrl_site1169] | 8.47 ± 0.37 |
| AAGACAATATATGCAGTGCATATACATACATATATA | 8.92 ± 0.44 |
| GCATAATATACTCTTACACACCATTTCTAAATACAT [CACACA_site4912] | 9.12 ± 0.45 |
| AAAAAAAAAAAAAAAAGTACGTATTTTTTTTAAAAT [XGTACX_site2654] | 8.55 ± 0.47 |
| ATATATATATATATATGTACATATTTTATTTGAAAT [XGTACX_site7411] | 9.495 ± 0.078 |
| ACAGGAAAAAACAATTGTACATGTATATATATATAT [XGTACX_site7677] | 9.72 ± 0.4 |
| CAAAATAAAAATTAATGTACATAAAAAATGAATATA [XGTACX_site1085] | 8.93 ± 0.45 |
| ATACATATATACATATGTACATATATATATATATAT [XGTACX_site8206] | 9.525 ± 0.021 |
| AAAAAAATAATTTGTAGTACGATTCAATGAAAAGGC [XGTACX_site1287] | 8.9 ± 0.43 |
| TAAATATTTTTTTAGACACACATATATCTATGATAT [CACACA_site1107] | 8.68 ± 0.42 |
| CCCACAAAGGAATATACACACATATATATATATATA [CACACA_site4091] | 9.95 ± 0.18 |
| ATAAAATTGTATAACTGTACATATATATATATATAT [XGTACX_site5596] | 9.59 ± 0.25 |
| TCTTTGAATTTTTTAACACACACATGGGTGGATATA [CACACA_site8474] | 9.04 ± 0.38 |
| TTGAAAATGAAAAAATGTACTTAAAAAAAAGGAACA [XGTACX_site8664] | 8.71 ± 0.54 |
| ATGCTATATTAAAAACGTACAAACTGTTTAGAAAAA [XGTACX_site8943] | 8.62 ± 0.47 |
| TTTTTTCTTAAAGACATATATTTATTTGGTAAAACA [XGTACX_negctrl_site243] | 8.21 ± 0.44 |

| Sequence | gcPBM binding intensity (ln) |
| --- | --- |
| TATTTTCTTTTTCTTGTACACACATAATATGGATGA [CACACA_site8168] | 9.01 ± 0.45 |
| TATTTACATTTATGTGCACACATTCCATTTGAAAGT [CACACA_site1954] | 9.18 ± 0.47 |
| CGGACATACATAGGAACATGCAAAATTTTTTATTTT [TGCATGCA_site575] | 8.79 ± 0.55 |
| AATAGAAAAAAAAAATGTACACATATAAAAGCATAT [XGTACX_site6306] | 9.12 ± 0.54 |
| TATATTATTTATTTTTGTACATATTATGAATGAATA [XGTACX_site3971] | 8.54 ± 0.47 |
| TTACCTTTAAATGGATGTACAGAAATTTAAATTGTT [XGTACX_site7044] | 8.48 ± 0.42 |
| CTTCCTTCTAAATGCACACGGAAAGTATAAATGTAT [CACACA_site2501] | 8.88 ± 0.4 |
| AGAGATATAAGAAAAGCACACACACCCAAAAAAAAA [CACACA_site8917] | 9.96 ± 0.29 |
| TATATACAAAAAATATGTACATATATATATATATAT [XGTACX_site3497] | 9.69 ± 0.31 |
| AAAAAATAAATAAATACACACACACTAATATATATA [CACACA_site8488] | 9.72 ± 0.24 |
| ATTATTTATATTATGGTGCATAATTTTGGGTTTCTT | 9.02 ± 0.48 |
| TATTTGTTTTTATATAGTACATAAATATATATATAT [XGTACX_site7834] | 8.63 ± 0.4 |
| AAAATAAATATGAACACACACATTTATGCCTTTAAA [CACACA_site1271] | 9.14 ± 0.37 |
| TGAAAAGTAAAATACACACACATAATCTAATTTATA [CACACA_site7024] | 9.29 ± 0.3 |
| GGTTAACATAAATATATACACACCAATGATGGCATT [CACACA_site1568] | 9.04 ± 0.32 |
| CCTCTTAATATGTGCACACTAAATTATAACATAATT [CACACA_site3259] | 9.05 ± 0.38 |
| TGGATTTTGTATTAATGTACATATATATATATATAT [XGTACX_site4442] | 9.2 ± 0.21 |
| TATATTATTTATTAGACACACATTATTAATATATTT [CACACA_site1078] | 8.74 ± 0.45 |
| AACAACATTTTGTAATGTACATATTTACTTATATTC [XGTACX_site7251] | 8.76 ± 0.43 |
| CAGATAGACTTATATGCATGCATTCACATACCAACA [TGCATGCA_site163] | 8.98 ± 0.35 |
| AAATAATTAGAAATAGTGCACATAATTAAGGGATAC | 9.28 ± 0.45 |
| TAGAAATATATAAATTGTACATGTTTGTATAATATA [XGTACX_site2097] | 8.64 ± 0.46 |
| AAAAAAGAAGAGCACACACACATATATAAATATAAA [CACACA_site631] | 9.69 ± 0.33 |

| Sequence | gcPBM binding intensity (ln) |
| --- | --- |
| TTATAATAAAAGGCTTTACAATTATTAAACAAATAA [GTGCAC_negctrl_site480] | 8.23 ± 0.59 |
| GCCATTGTACCATCCACACACATATATATCTGTATA [CACACA_site5490] | 9.63 ± 0.39 |
| TGGTATTAAGGAGAGGGTACAAAAAAAAAAAAAAAA [XGTACX_site1668] | 8.42 ± 0.47 |
| AAAAAAAAAAAAAAAAAAAAATATATATATATATAT [GTGCAC_negctrl_site426] | 9.67 ± 0.085 |
| AAAAGTATAATAAATTGTACTAACAAATATTTATGT [XGTACX_site7721] | 8.7 ± 0.46 |
| TAAAATTTTGTTTGTTGTACTTATTTTCGTGTCAAC [XGTACX_site8277] | 8.73 ± 0.49 |
| AAAGATGAATTTTTTACACACACCATTTTATAATAT [CACACA_site3676] | 9.07 ± 0.25 |
| AATGTAAAACCTCCTACACACACCAATTAACTATTC [CACACA_site2112] | 9.55 ± 0.2 |
| TACTTATCGTTAAATTGTACTAAAAAATATTTTTCT [XGTACX_site4665] | 8.53 ± 0.52 |
| AAAAAAAACGGACACACACACATACAAAATATATAT [CACACA_site4910] | 9.99 ± 0.28 |
| AGGGAATATTTTTATGCATGTGCTTACACATTACAA [TGCATGCA_site830] | 8.84 ± 0.39 |
| TTCTAATATTTACATAATATATAGAAATATAAAGGT [XGTACX_negctrl_site504] | 8.76 ± 0.3 |
| AAATATAAACTCAGCACACAAACATATATATGTCAT [CACACA_site4004] | 9.15 ± 0.4 |
| TTTTTTTTTTTTTCTCGTACAAAATAATACCTTTTT [XGTACX_site3867] | 8.53 ± 0.45 |
| ATGGTATAAAAAAATACACACTTATATATATTCTTA [CACACA_site4427] | 8.68 ± 0.46 |
| GTAGACATTATAATGGTGCAAAAAAATTAACAAAAA [GTGCAC_site9891] | 8.98 ± 0.64 |
| AAGTATGCGTTATATACACACATACATTTATATATC [CACACA_site6207] | 9.04 ± 0.32 |
| TCAGAGTGAAGTTATACACACATGGTTTTTTTTTTT [CACACA_site2116] | 8.87 ± 0.49 |
| AGAGAGAAAGCTATAACATGCAACAATTTTTAGAAA [TGCATGCA_site95] | 8.78 ± 0.59 |
| AGGAGGATATTACACAGTACCCAGTAACTCTACGGA [XGTACX_site1998] | 8.82 ± 0.51 |
